Source: the supplement of paper PMC8728848
This is one part of the list.

How the values were obtained:
Test in all cases: glycan array binding signal (z-score within array); higher = stronger binding
Details in all cases: glycan notation: IUPAC condensed, linker removed
[1] = target: GlcNAc(b1-4)[GlcNAc(b1-6)]GalNAc
Method in brief: (§1)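 Arrays were curated from the Consortium for Functional Glycomics database, 3228 in total, and kept only where the protein sequence was available. Binding is expressed as a within-array Z-score. This score was averaged across arrays of the same protein sequence at different concentrations or buffers and across linkers, and negative values can be read as non-binding.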

[2] = target: GlcNAc(b1-6)Gal(b1-4)GlcNAc
Method in brief: as §1

GlcNAc(b1-6)GalNAc = target: GlcNAc(b1-6)GalNAc
Method in brief: as §1

Kdn(a2-3)Gal(b1-3)GlcNAc = target: Kdn(a2-3)Gal(b1-3)GlcNAc
Method in brief: as §1

Kdn(a2-3)Gal(b1-4)GlcNAc = target: Kdn(a2-3)Gal(b1-4)GlcNAc
Method in brief: as §1

[3] = target: Man(a1-2)Man(a1-2)Man(a1-3)Man
Method in brief: as §1

[4] = target: Man(a1-2)Man(a1-2)Man(a1-3)[Man(a1-2)Man(a1-3)[Man(a1-2)Man(a1-6)]Man(a1-6)]Man(b1-4)GlcNAc(b1-4)GlcNAc
Method in brief: as §1

[5] = target: Man(a1-2)Man(a1-2)Man(a1-3)[Man(a1-2)Man(a1-6)[Man(a1-3)]Man(a1-6)]Man(b1-4)GlcNAc(b1-4)GlcNAc
Method in brief: as §1

[6] = target: Man(a1-2)Man(a1-2)Man(a1-6)[Man(a1-3)]Man
Method in brief: as §1

Man(a1-2)Man(a1-3)Man = target: Man(a1-2)Man(a1-3)Man
Method in brief: as §1

[7] = target: Man(a1-2)Man(a1-3)[Man(a1-2)Man(a1-6)]Man
Method in brief: as §1

[8] = target: Man(a1-2)Man(a1-3)[Man(a1-3)[Man(a1-6)]Man(a1-6)]Man(b1-4)GlcNAc(b1-4)GlcNAc
Method in brief: as §1

[9] = target: Man(a1-2)Man(a1-3)[Man(a1-6)]Man(a1-6)[Man(a1-2)Man(a1-3)]Man(b1-4)GlcNAc(b1-4)GlcNAc
Method in brief: as §1

Man(a1-3)[Man(a1-6)]Man = target: Man(a1-3)[Man(a1-6)]Man
Method in brief: as §1

[10] = target: Man(a1-3)[Man(a1-6)]Man(a1-6)[Man(a1-3)]Man(b1-4)GlcNAc(b1-4)GlcNAc
Method in brief: as §1

[11] = target: Man(a1-3)[Man(a1-6)]Man(b1-4)GlcNAc(b1-4)GlcNAc
Method in brief: as §1

Man(b1-4)GlcNAc = target: Man(b1-4)GlcNAc
Method in brief: as §1

Neu5Ac(a2-3)Gal = target: Neu5Ac(a2-3)Gal
Method in brief: as §1

[12] = target: Neu5Ac(a2-3)Gal(b1-3)GalNAc
Method in brief: as §1

[13] = target: Neu5Ac(a2-3)Gal(b1-3)GalNAc(b1-3)Gal(a1-4)Gal(b1-4)Glc
Method in brief: as §1

[14] = target: Neu5Ac(a2-3)Gal(b1-3)GalNAc(b1-4)[Neu5Ac(a2-3)]Gal(b1-4)Glc
Method in brief: as §1

[15] = target: Neu5Ac(a2-3)Gal(b1-3)GalNAc6S
Method in brief: as §1

[16] = target: Neu5Ac(a2-3)Gal(b1-3)GlcNAc
Method in brief: as §1

[17] = target: Neu5Ac(a2-3)Gal(b1-3)GlcNAc(b1-3)Gal(b1-4)GlcNAc
Method in brief: as §1

[18] = target: Neu5Ac(a2-3)Gal(b1-3)GlcNAc6S
Method in brief: as §1

[19] = target: Neu5Ac(a2-3)Gal(b1-3)[Fuc(a1-4)]GlcNAc
Method in brief: as §1

[20] = target: Neu5Ac(a2-3)Gal(b1-3)[Fuc(a1-4)]GlcNAc(b1-3)Gal(b1-4)[Fuc(a1-3)]GlcNAc
Method in brief: as §1

[21] = target: Neu5Ac(a2-3)Gal(b1-3)[Neu5Ac(a2-3)Gal(b1-4)]GlcNAc
Method in brief: as §1

[22] = target: Neu5Ac(a2-3)Gal(b1-3)[Neu5Ac(a2-6)]GalNAc
Method in brief: as §1

Neu5Ac(a2-3)Gal(b1-4)Glc = target: Neu5Ac(a2-3)Gal(b1-4)Glc
Method in brief: as §1

[23] = target: Neu5Ac(a2-3)Gal(b1-4)GlcNAc
Method in brief: as §1

[24] = target: Neu5Ac(a2-3)Gal(b1-4)GlcNAc(b1-3)Gal(b1-4)GlcNAc
Method in brief: as §1

[25] = target: Neu5Ac(a2-3)Gal(b1-4)GlcNAc(b1-3)Gal(b1-4)GlcNAc(b1-3)Gal(b1-4)GlcNAc
Method in brief: as §1

[26] = target: Neu5Ac(a2-3)Gal(b1-4)GlcNAc(b1-3)Gal(b1-4)[Fuc(a1-3)]GlcNAc
Method in brief: as §1

B1: 7WC (Trifolium repens) (protein)
chain: MGTITSYAVVFDAGSTGSRVHVYHFDQNLDLLHIGKDVEFYNKIQPGLSAYADNPEQAAKSLIPLLEQAENVVPEDFHSKTPIRLGATAGLRLLDGDASERILQAVRDMLNNKSTFNVQPDAVSIIDGTQEGSYLWVTINYVLGNLGKRFTNTVGVIDLGGGSVQMAYAVSKKTARNAPKVTDGEDPYIKKIVLKGKPYDLYVHSYLHFGREASRAEILKVTHGSASPCILAGFDGIYTYSGEEFKASAPTSGANFDKCKKIIQKALKLDYPCPYQNCTFGGIWNGGGGSGQKKLFAASSFFYLPQDVGMVDPNKSNLKLRPVDLENKAKIVCTLNVEDVKSAYPLLEKFNIVPYACMDLIYQYELLVDGFGLDPLQEITAGEKIEYQEALVDAAWALGNAVEAVLLLPKFERLMYFVVEHHHHHH
- glycan array binding signal (z-score) [1]: 0.548
- glycan array binding signal (z-score) [2]: 0.085
- glycan array binding signal (z-score) (GlcNAc(b1-6)GalNAc): 0.422
- glycan array binding signal (z-score) (Kdn(a2-3)Gal(b1-3)GlcNAc): 0.012
- glycan array binding signal (z-score) (Kdn(a2-3)Gal(b1-4)GlcNAc): -0.402
- glycan array binding signal (z-score) [3]: -0.024
- glycan array binding signal (z-score) [4]: 0.41
- glycan array binding signal (z-score) [5]: 1.07
- glycan array binding signal (z-score) [6]: 9.79
- glycan array binding signal (z-score) (Man(a1-2)Man(a1-3)Man): -0.261
- glycan array binding signal (z-score) [7]: 1.78
- glycan array binding signal (z-score) [8]: -0.237
- glycan array binding signal (z-score) [9]: 0.312
- glycan array binding signal (z-score) (Man(a1-3)[Man(a1-6)]Man): -0.475
- glycan array binding signal (z-score) [10]: -0.469
- glycan array binding signal (z-score) [11]: -0.388
- glycan array binding signal (z-score) (Man(b1-4)GlcNAc): -0.155
- glycan array binding signal (z-score) (Neu5Ac(a2-3)Gal): -0.522
- glycan array binding signal (z-score) [12]: -0.314
- glycan array binding signal (z-score) [13]: -0.388
- glycan array binding signal (z-score) [14]: -0.537
- glycan array binding signal (z-score) [15]: -0.543
- glycan array binding signal (z-score) [16]: -0.438
- glycan array binding signal (z-score) [17]: -0.525
- glycan array binding signal (z-score) [18]: -0.354
- glycan array binding signal (z-score) [19]: -0.496
- glycan array binding signal (z-score) [20]: 4.17
- glycan array binding signal (z-score) [21]: -0.542
- glycan array binding signal (z-score) [22]: -0.537
- glycan array binding signal (z-score) (Neu5Ac(a2-3)Gal(b1-4)Glc): -0.107
- glycan array binding signal (z-score) [23]: -0.545
- glycan array binding signal (z-score) [24]: -0.301
- glycan array binding signal (z-score) [25]: -0.486
- glycan array binding signal (z-score) [26]: -0.305
